# Laboratory results: a collection of fitness landscapes (doi:10.1016/j.celrep.2020.107928)
# The full ranking holds about 81,000 sequences; the median of “one-hybrid fitness for binding parS DNA” is about -0.17, and the highest 2% start at about 0.51. This is one part of the list.
# B1: Caulobacter ParB omega fusion; a variant is named by its letters at X, in order, B8GW30 (parent)
# chain: MESVVVGEPGMSEGRRGLGRGLSALLGEVDAAPAQAPGEQLGGSREAPIEILQRNPDQPRRTFREEDLEDLSNSIREKGVLQPILVRPSPDTAGEYQIVAGERAWRAAQRAGLKTVPIMVRELDDLAVLEIGIIENVQRADLNVLEEALSYKVLMEKFERTQENIAQTIGKSXSHVANXMRLLXLPDEVQSYLVSGELTAXHARAIAAAADPVALAKQIIEGGLSVRETEALARKAPNLSAGKSKGGRPPRVKDTDTQALESDLSSVLGLDVSIDHRGSTGTLTITYATLEQLDDLCNRLTRGI
# Variants of: B1
# Test: one-hybrid fitness for binding parS DNA (scaled: cognate 1, non-cognate 0); higher = stronger binding
# Conditions: with parS DNA site
# In short: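 Caulobacter ParB libraries with four specificity codons randomised were screened by bacterial one-hybrid selection in the E. coli USO strain, using a HIS3 reporter whose site lies 19 bp from the promoter. Selection ran for 48 hours at 37°C on M9 lacking histidine, with 0.1 mM IPTG and 5 mM 3-AT. Plasmids were Illumina-sequenced before and after selection, three replicate libraries were pooled, and variants with under 10 reads were dropped. Fitness is the log change in each variant's read ratio to wild type, rescaled against the cognate and non-cognate sites.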
row,Variant,one-hybrid fitness for binding parS DNA
1,QMYK,≤ 0.2
2,EIAA,≤ 0.2
3,CRNA,≤ 0.2
4,SKTH,≤ 0.2
5,TWMG,≤ 0.2
6,FMQR,≤ 0.2
7,WLYA,≤ 0.2
8,SDSG,≤ 0.2
9,RRDM,≤ 0.2
10,NRNK,≤ 0.2
11,QTVR,≤ 0.2
12,RYAA,0.559
13,NFSS,≤ 0.2
14,SWQL,≤ 0.2
15,WCAL,≤ 0.2
16,SMAP,≤ 0.2
17,GRAI,≤ 0.2
18,MFHT,≤ 0.2
19,HLQT,≤ 0.2
20,AKYR,≤ 0.2
21,YPMC,≤ 0.2
22,NDAS,≤ 0.2
23,RPKA,≤ 0.2
24,VMSS,≤ 0.2
25,KWRV,≤ 0.2
26,SKAG,≤ 0.2

row,Variant,one-hybrid fitness for binding parS DNA
1,LPDK,≤ 0.2
2,TPSF,≤ 0.2
3,IGYE,≤ 0.2
4,MWSS,≤ 0.2
5,CFAA,≤ 0.2
6,EHQD,0.289
7,HDQY,≤ 0.2
8,NTQT,≤ 0.2
9,AVSQ,≤ 0.2
10,PQSP,≤ 0.2
11,RCVD,0.203
12,EATV,≤ 0.2
13,LRGD,≤ 0.2
14,ETML,≤ 0.2
15,ASGR,≤ 0.2
16,NYEM,≤ 0.2
17,EPRR,≤ 0.2
18,NLSG,≤ 0.2
19,MHEV,≤ 0.2
20,GYST,≤ 0.2
21,AWES,≤ 0.2
22,PSYN,≤ 0.2
23,YIAQ,≤ 0.2
24,RTLS,1.01
25,QKPV,≤ 0.2
26,PNQI,≤ 0.2

row,Variant,one-hybrid fitness for binding parS DNA
1,WVPC,≤ 0.2
2,AWAR,≤ 0.2
3,CRQC,≤ 0.2
4,KDML,0.21
5,SHNS,≤ 0.2
6,QINH,≤ 0.2
7,FHQR,≤ 0.2
8,PPSV,≤ 0.2
9,RCHL,≤ 0.2
10,ASIR,≤ 0.2
11,PCDA,≤ 0.2
12,DKSV,≤ 0.2
13,RCHA,0.626
14,YFLC,≤ 0.2
15,HRAS,0.383
16,KGSF,≤ 0.2
17,FFNR,≤ 0.2
18,STAV,≤ 0.2
19,DTHM,≤ 0.2
20,PQLT,≤ 0.2
21,DTVG,≤ 0.2
22,RLGV,≤ 0.2
23,KIGE,≤ 0.2
24,VKYR,≤ 0.2
25,CHLR,≤ 0.2
26,TTIH,≤ 0.2

row,Variant,one-hybrid fitness for binding parS DNA
1,TANM,≤ 0.2
2,VTTP,≤ 0.2
3,YTTV,≤ 0.2
4,WCIT,≤ 0.2
5,DMCC,≤ 0.2
6,PAYE,≤ 0.2
7,AWAS,≤ 0.2
8,SGGE,≤ 0.2
9,NTCT,≤ 0.2
10,KPVI,≤ 0.2
11,STYV,≤ 0.2
12,QMDL,≤ 0.2
13,QEPR,≤ 0.2
14,QCGG,≤ 0.2
15,EAST,≤ 0.2
16,YMNR,≤ 0.2
17,NEIW,≤ 0.2
18,STGG,≤ 0.2
19,QDES,≤ 0.2
20,MFNT,≤ 0.2
21,GVTW,≤ 0.2
22,AEMV,≤ 0.2
23,YWLL,≤ 0.2
24,YLAA,≤ 0.2
25,ESEF,≤ 0.2
26,NRIM,≤ 0.2

row,Variant,one-hybrid fitness for binding parS DNA
1,TMKV,≤ 0.2
2,NLTR,≤ 0.2
3,TFES,≤ 0.2
4,AIAM,≤ 0.2
5,PWLV,≤ 0.2
6,DTED,≤ 0.2
7,ITFF,≤ 0.2
8,GDKY,≤ 0.2
9,RCYI,≤ 0.2
10,RFIH,≤ 0.2
11,MIVC,≤ 0.2
12,HGQR,≤ 0.2
13,QSGH,≤ 0.2
14,YVYR,≤ 0.2
15,YEVI,≤ 0.2
16,DNML,≤ 0.2
17,VHNT,≤ 0.2
18,RYVT,0.716
19,RCKC,0.816
20,GARS,≤ 0.2
21,WALY,≤ 0.2
22,MVTK,≤ 0.2
23,PCPH,≤ 0.2
24,MMAD,≤ 0.2
25,VLNN,≤ 0.2
26,RERF,≤ 0.2

row,Variant,one-hybrid fitness for binding parS DNA
1,VDVP,≤ 0.2
2,LEIW,≤ 0.2
3,GLPT,≤ 0.2
4,PRKE,≤ 0.2
5,RGAV,≤ 0.2
6,AIRA,≤ 0.2
7,MCLR,≤ 0.2
8,PSPQ,≤ 0.2
9,KETW,≤ 0.2
10,GYTG,≤ 0.2
11,RHHL,≤ 0.2
12,HTVT,≤ 0.2
13,NTLT,≤ 0.2
14,RRKS,0.684
15,CKKF,≤ 0.2
16,LWRD,≤ 0.2
17,NQHT,≤ 0.2
18,IGLE,0.203
19,RIWP,0.223
20,GNAV,≤ 0.2
21,HCWC,≤ 0.2
22,SQLE,≤ 0.2
23,RRDW,≤ 0.2
